Experimental data from the supplement of paper PMC7826260.
Some of the results follow. Each Rep nickase domain was tested in vitro on the same pool of single strands at 3 µM enzyme and 37 °C for 1 h; the strands have 90 letters, of which the middle is given. The score is log2 (uncut reads / reads without enzyme); more negative means more cut, near 0 not cut, and no call is made. Shares of all reads are compared; where an enzyme cuts many sequences, the uncut ones exceed 0.

How the values were obtained:
Assay in all cases: uncleaved DNA left, log2 of reads against the no-enzyme library (log2 ratio); higher = less cleavage (more negative = more Rep cleavage of the k-mer); sequences stand for … in CTCGTCCG…ACCGGAGA
[1] = test system: T1, Rep nickase domain of Muscovy duck circovirus
T1 sequence (residues 1-111 of Rep, tag left off): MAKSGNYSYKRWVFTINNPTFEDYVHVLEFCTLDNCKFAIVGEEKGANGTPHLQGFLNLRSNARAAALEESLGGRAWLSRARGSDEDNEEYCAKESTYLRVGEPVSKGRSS
Description: (§1)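 A pool of 90-nt single-stranded DNAs with seven random bases just before the constant AC of the nick site (name = the seven bases) was cut by 3 µM recombinant His6-SUMO-tagged Rep nickase domain (300 nM DNA, 50 mM HEPES pH 8.0, 50 mM NaCl, 1 mM MnCl2, 1 h, 37 °C, three replicates). Uncut DNA was amplified and sequenced.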

[2] = test system: T2, Rep nickase domain of banana bunchy top virus
T2 sequence (residues 1-94 of Rep, tag left off): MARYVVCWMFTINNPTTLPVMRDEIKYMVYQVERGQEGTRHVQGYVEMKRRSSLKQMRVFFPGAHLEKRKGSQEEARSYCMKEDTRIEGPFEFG
Description: as §1

[3] = test system: T3, Rep nickase domain of cabbage leaf curl virus
T3 sequence (residues 1-116 of Rep, tag left off): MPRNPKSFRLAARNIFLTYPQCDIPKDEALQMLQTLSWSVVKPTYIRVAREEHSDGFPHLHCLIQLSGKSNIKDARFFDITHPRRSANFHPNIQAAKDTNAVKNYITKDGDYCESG
Description: as §1

[4] = test system: T4, Rep nickase domain of chickpea chlorotic dwarf virus
T4 sequence (residues 1-124 of Rep, tag left off): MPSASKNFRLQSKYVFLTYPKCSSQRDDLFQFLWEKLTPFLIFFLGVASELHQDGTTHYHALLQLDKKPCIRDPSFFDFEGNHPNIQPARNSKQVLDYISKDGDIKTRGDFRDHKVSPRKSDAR
Description: as §1

[5] = test system: T5, Rep nickase domain of faba bean necrotic yellows virus
T5 sequence (residues 1-98 of Rep, tag left off): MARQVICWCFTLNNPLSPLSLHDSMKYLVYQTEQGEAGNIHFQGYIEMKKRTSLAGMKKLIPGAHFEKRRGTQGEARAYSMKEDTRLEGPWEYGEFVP
Description: as §1

[6] = test system: T6, Rep nickase domain of maize striate mosaic virus
T6 sequence (residues 1-117 of Rep, tag left off): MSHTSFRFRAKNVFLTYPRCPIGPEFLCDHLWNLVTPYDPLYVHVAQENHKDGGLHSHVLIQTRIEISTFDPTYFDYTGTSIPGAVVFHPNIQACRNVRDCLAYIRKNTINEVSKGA
Description: as §1

[7] = test system: T7, Rep nickase domain of porcine circovirus 2
T7 sequence (residues 2-116 of Rep, tag left off): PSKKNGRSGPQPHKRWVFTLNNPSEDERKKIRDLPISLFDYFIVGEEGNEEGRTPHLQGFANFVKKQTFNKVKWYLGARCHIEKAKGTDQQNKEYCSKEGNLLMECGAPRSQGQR
Description: as §1

[8] = test system: T8, Rep nickase domain of tomato yellow leaf curl virus
T8 sequence (residues 1-136 of Rep, tag left off): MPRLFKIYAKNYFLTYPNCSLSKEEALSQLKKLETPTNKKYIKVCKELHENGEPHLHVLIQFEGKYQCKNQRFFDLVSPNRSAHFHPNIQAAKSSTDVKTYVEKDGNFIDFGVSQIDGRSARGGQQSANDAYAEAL
Description: as §1

[9] = test system: T9, Rep nickase domain of wheat dwarf virus
T9 sequence (residues 1-137 of Rep, tag left off): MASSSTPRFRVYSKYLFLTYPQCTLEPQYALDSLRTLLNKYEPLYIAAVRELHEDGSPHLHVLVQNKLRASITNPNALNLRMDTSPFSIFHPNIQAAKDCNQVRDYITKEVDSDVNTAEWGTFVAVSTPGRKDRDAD
Description: as §1

Row | Sequence | uncleaved DNA left (log2) [1] | uncleaved DNA left (log2) [2] | uncleaved DNA left (log2) [3] | uncleaved DNA left (log2) [4] | uncleaved DNA left (log2) [5] | uncleaved DNA left (log2) [6] | uncleaved DNA left (log2) [7] | uncleaved DNA left (log2) [8] | uncleaved DNA left (log2) [9]
1 | CACTGTC | -0.0814 | -0.0781 | -0.224 | 0.101 | -0.0492 | -0.258 | -0.392 | -0.187 | -0.0824
2 | TGACTCG | 0.0554 | -0.0386 | -0.569 | -0.521 | 0.15 | -0.781 | 0.0647 | -0.019 | -0.0872
3 | GTATTCC | -0.047 | 0.0114 | 0.288 | 0.809 | 0.0239 | 1.64 | 0.0137 | 0.0187 | 0.0568
4 | GAGACCT | 0.0439 | 0.159 | 0.577 | 1.5 | 0.00581 | 1.94 | -1.79 | 0.0659 | 0.22
5 | CTGGAGG | 0.128 | 0.0323 | 0.399 | 0.942 | 0.0261 | 0.722 | 0.0938 | 0.0101 | 0.0116
6 | AGAGTGC | 0.0953 | 0.0597 | -0.407 | -0.224 | 0.119 | -0.87 | 0.194 | 0.174 | 0.00126
7 | CATGGAG | 0.121 | -0.0242 | -0.59 | 0.167 | 0.0763 | -0.7 | 0.24 | 0.2 | -0.0225
8 | TCAAGCA | 0.111 | 0.175 | -0.00758 | -0.257 | 0.0146 | -0.548 | 0.0585 | -0.0059 | 0.113
9 | CGCATCA | 0.16 | 0.16 | 0.257 | -0.242 | 0.237 | -0.0364 | -0.0578 | 0.182 | 0.231
10 | TACGGCG | -0.0167 | -0.041 | -0.822 | 0.284 | 0.0883 | -0.714 | 0.109 | 0.0424 | -0.113
11 | GCCGACC | -0.154 | 0.00639 | -0.035 | 0.301 | -0.0271 | -0.206 | -0.00871 | -0.0693 | -0.131
12 | TCTGCGA | 0.0308 | -0.0066 | -0.695 | 0.413 | 0.0238 | -0.806 | 0.0843 | -0.00575 | 0.0289
13 | AATATAT | 0.0182 | -0.169 | -0.839 | -1.95 | 0.074 | -0.312 | -3.23 | 0.0939 | 0.105
14 | TGAGCAA | 0.0264 | -0.00905 | 0.0441 | 0.235 | 0.0316 | -0.1 | -0.743 | -0.00714 | 0.0149
15 | TTGATAT | 0.0404 | -0.0796 | 0.313 | -0.0929 | -0.106 | 0.139 | -0.0139 | 0.0199 | 0.055
